# The list shows a part of the results.
# B1: CvGal2 (Crassostrea virginica) (protein)
# chain: MGSSHHHHHHSSGLVPRGSHMRIREAGKRKDTTKVYQIPDGLFPGQQVMLRGRVPWGSKSFSINFSATPRMGEGDILFHLNPRPSEGVCIRNALLNGSWGAEEKWQPYFPFDDGRSFSVKIEVTNDAFRTFVNGRPFVDFLHRTDFRAGKYLTLREGAEYYDVIFQSKPNIPLTTAIHNGMRIGKTIRIRGMCTAQDGFAINFNDNRNNIYFHFNARPAQRTVVRNSYFGSWGNEETAISKEFPFYPFLYFYASFVCMEDKFAVYVNDEHFIDFAHRGNPNNISVLQIKGSVNVLDTECLEPMGEDAMTEVDSGLENGDLFVLNGLMTERGKTFAVNFLNGFTENDDIALHFNPRKSTGEVVLNSRYGGAWQSEEKVALPGVFWSNRPLQVKVETKRNKFKIYVNGVDLAKYKIRGNVEDVHAVQVKGDVFLLETLLLKRLMKPVWERLTGGIRPGTWVTLQGTPKKNWQQFVVNFALDDTLDGDIAFHFNVRRGARQVVRNHRQSGAWGREETVTPFFAFDSEATFEIVFFVKEEKFLIYFNGKLFFEFVHRVPVERITHIYMDGDCNFYEPEVVI
# Key:
# Experiment in all cases: glycan array binding signal (z-score within array); higher = stronger binding
# Conditions in all cases: glycan notation: IUPAC condensed, linker removed
# [1] = target: GlcNAc(a1-6)Gal(b1-4)GlcNAc
# Summary of the method: (§1)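 Arrays were curated from the Consortium for Functional Glycomics database, 3228 in total, and kept only where the protein sequence was available. Binding is expressed as a within-array Z-score. This score was averaged across arrays of the same protein sequence at different concentrations or buffers and across linkers, and negative values can be read as non-binding.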
# [2] = target: GlcNAc(b1-2)Gal(b1-3)GalNAc
# Summary of the method: as §1
# [3] = target: GlcNAc(b1-2)Man(a1-3)[GlcNAc(b1-2)Man(a1-6)]Man(b1-4)GlcNAc(b1-4)GlcNAc
# Summary of the method: as §1
# [4] = target: GlcNAc(b1-2)Man(a1-3)[GlcNAc(b1-2)Man(a1-6)]Man(b1-4)GlcNAc(b1-4)[Fuc(a1-6)]GlcNAc
# Summary of the method: as §1
# [5] = target: GlcNAc(b1-2)Man(a1-3)[GlcNAc(b1-4)][GlcNAc(b1-2)Man(a1-6)]Man(b1-4)GlcNAc(b1-4)GlcNAc
# Summary of the method: as §1
# [6] = target: GlcNAc(b1-2)Man(a1-3)[GlcNAc(b1-4)][GlcNAc(b1-2)Man(a1-6)]Man(b1-4)GlcNAc(b1-4)[Fuc(a1-6)]GlcNAc
# Summary of the method: as §1
# [7] = target: GlcNAc(b1-2)[GlcNAc(b1-4)]Man(a1-3)[GlcNAc(b1-2)Man(a1-6)]Man(b1-4)GlcNAc(b1-4)GlcNAc
# Summary of the method: as §1
# [8] = target: GlcNAc(b1-2)[GlcNAc(b1-4)]Man(a1-3)[GlcNAc(b1-4)][GlcNAc(b1-2)Man(a1-6)]Man(b1-4)GlcNAc(b1-4)GlcNAc
# Summary of the method: as §1
# [9] = target: GlcNAc(b1-2)[GlcNAc(b1-4)]Man(a1-3)[GlcNAc(b1-4)][GlcNAc(b1-2)[GlcNAc(b1-6)]Man(a1-6)]Man(b1-4)GlcNAc(b1-4)GlcNAc
# Summary of the method: as §1
# [10] = target: GlcNAc(b1-2)[GlcNAc(b1-4)]Man(a1-3)[GlcNAc(b1-4)][GlcNAc(b1-2)[GlcNAc(b1-6)]Man(a1-6)]Man(b1-4)GlcNAc(b1-4)[Fuc(a1-6)]GlcNAc
# Summary of the method: as §1
# [11] = target: GlcNAc(b1-2)[GlcNAc(b1-6)]Man(a1-6)[GlcNAc(b1-2)Man(a1-3)]Man(b1-4)GlcNAc(b1-4)GlcNAc
# Summary of the method: as §1
# [12] = target: GlcNAc(b1-2)[GlcNAc(b1-6)]Man(a1-6)[GlcNAc(b1-2)Man(a1-3)]Man(b1-4)GlcNAc(b1-4)[Fuc(a1-6)]GlcNAc
# Summary of the method: as §1
# [13] = target: GlcNAc(b1-2)[GlcNAc(b1-6)]Man(a1-6)[GlcNAc(b1-4)][GlcNAc(b1-2)Man(a1-3)]Man(b1-4)GlcNAc(b1-4)GlcNAc
# Summary of the method: as §1
# GlcNAc(b1-3)Fuc = target: GlcNAc(b1-3)Fuc
# Summary of the method: as §1
# GlcNAc(b1-3)Gal = target: GlcNAc(b1-3)Gal
# Summary of the method: as §1
# [14] = target: GlcNAc(b1-3)Gal(b1-3)GalNAc
# Summary of the method: as §1
# GlcNAc(b1-3)Gal(b1-4)Glc = target: GlcNAc(b1-3)Gal(b1-4)Glc
# Summary of the method: as §1
# [15] = target: GlcNAc(b1-3)Gal(b1-4)GlcNAc
# Summary of the method: as §1
# [16] = target: GlcNAc(b1-3)Gal(b1-4)GlcNAc(b1-2)Man(a1-3)[GlcNAc(b1-3)Gal(b1-4)GlcNAc(b1-2)Man(a1-6)]Man(b1-4)GlcNAc(b1-4)GlcNAc
# Summary of the method: as §1
# [17] = target: GlcNAc(b1-3)Gal(b1-4)GlcNAc(b1-2)Man(a1-3)[GlcNAc(b1-3)Gal(b1-4)GlcNAc(b1-2)Man(a1-6)]Man(b1-4)GlcNAc(b1-4)[Fuc(a1-6)]GlcNAc
# Summary of the method: as §1
# [18] = target: GlcNAc(b1-3)Gal(b1-4)GlcNAc(b1-2)[GlcNAc(b1-3)Gal(b1-4)GlcNAc(b1-6)]Man(a1-6)[GlcNAc(b1-3)Gal(b1-4)GlcNAc(b1-2)Man(a1-3)]Man(b1-4)GlcNAc(b1-4)GlcNAc
# Summary of the method: as §1
# [19] = target: GlcNAc(b1-3)Gal(b1-4)GlcNAc(b1-3)Gal(b1-4)GlcNAc
# Summary of the method: as §1
# [20] = target: GlcNAc(b1-3)Gal(b1-4)GlcNAc(b1-3)Gal(b1-4)GlcNAc(b1-2)Man(a1-3)[GlcNAc(b1-3)Gal(b1-4)GlcNAc(b1-3)Gal(b1-4)GlcNAc(b1-2)Man(a1-6)]Man(b1-4)GlcNAc(b1-4)GlcNAc
# Summary of the method: as §1
# [21] = target: GlcNAc(b1-3)Gal(b1-4)GlcNAc(b1-3)Gal(b1-4)GlcNAc(b1-2)Man(a1-3)[GlcNAc(b1-3)Gal(b1-4)GlcNAc(b1-3)Gal(b1-4)GlcNAc(b1-2)Man(a1-6)]Man(b1-4)GlcNAc(b1-4)[Fuc(a1-6)]GlcNAc
# Summary of the method: as §1
# [22] = target: GlcNAc(b1-3)Gal(b1-4)GlcNAc(b1-3)Gal(b1-4)GlcNAc(b1-2)[GlcNAc(b1-3)Gal(b1-4)GlcNAc(b1-3)Gal(b1-4)GlcNAc(b1-6)]Man(a1-6)[GlcNAc(b1-3)Gal(b1-4)GlcNAc(b1-3)Gal(b1-4)GlcNAc(b1-2)Man(a1-3)]Man(b1-4)GlcNAc(b1-4)[Fuc(a1-6)]GlcNAc
# Summary of the method: as §1
# [23] = target: GlcNAc(b1-3)Gal(b1-4)GlcNAc(b1-3)Gal(b1-4)GlcNAc(b1-3)Gal(b1-4)GlcNAc(b1-2)Man(a1-3)[GlcNAc(b1-3)Gal(b1-4)GlcNAc(b1-3)Gal(b1-4)GlcNAc(b1-3)Gal(b1-4)GlcNAc(b1-2)Man(a1-6)]Man(b1-4)GlcNAc(b1-4)GlcNAc
# Summary of the method: as §1
# [24] = target: GlcNAc(b1-3)Gal(b1-4)GlcNAc(b1-3)Gal(b1-4)GlcNAc(b1-3)Gal(b1-4)GlcNAc(b1-2)Man(a1-3)[GlcNAc(b1-3)Gal(b1-4)GlcNAc(b1-3)Gal(b1-4)GlcNAc(b1-3)Gal(b1-4)GlcNAc(b1-2)Man(a1-6)]Man(b1-4)GlcNAc(b1-4)[Fuc(a1-6)]GlcNAc
# Summary of the method: as §1
# [25] = target: GlcNAc(b1-3)Gal(b1-4)GlcNAc(b1-3)Gal(b1-4)GlcNAc(b1-3)Gal(b1-4)GlcNAc(b1-2)[GlcNAc(b1-3)Gal(b1-4)GlcNAc(b1-3)Gal(b1-4)GlcNAc(b1-3)Gal(b1-4)GlcNAc(b1-6)]Man(a1-6)[GlcNAc(b1-3)Gal(b1-4)GlcNAc(b1-3)Gal(b1-4)GlcNAc(b1-3)Gal(b1-4)GlcNAc(b1-2)Man(a1-3)]Man(b1-4)GlcNAc(b1-4)[Fuc(a1-6)]GlcNAc
# Summary of the method: as §1
# [26] = target: GlcNAc(b1-3)Gal(b1-4)GlcNAc(b1-3)Gal(b1-4)GlcNAc(b1-3)Gal(b1-4)GlcNAc(b1-3)Gal(b1-4)GlcNAc(b1-2)Man(a1-3)[GlcNAc(b1-3)Gal(b1-4)GlcNAc(b1-3)Gal(b1-4)GlcNAc(b1-3)Gal(b1-4)GlcNAc(b1-3)Gal(b1-4)GlcNAc(b1-2)Man(a1-6)]Man(b1-4)GlcNAc(b1-4)GlcNAc
# Summary of the method: as §1
# [27] = target: GlcNAc(b1-3)Gal(b1-4)GlcNAc(b1-3)Gal(b1-4)GlcNAc(b1-3)Gal(b1-4)GlcNAc(b1-3)Gal(b1-4)GlcNAc(b1-2)Man(a1-3)[GlcNAc(b1-3)Gal(b1-4)GlcNAc(b1-3)Gal(b1-4)GlcNAc(b1-3)Gal(b1-4)GlcNAc(b1-3)Gal(b1-4)GlcNAc(b1-2)Man(a1-6)]Man(b1-4)GlcNAc(b1-4)[Fuc(a1-6)]GlcNAc
# Summary of the method: as §1
binder,measurement,setting,value
B1,glycan array binding signal (z-score),[1],-0.343
same,glycan array binding signal (z-score),[2],-0.334
same,glycan array binding signal (z-score),[3],-0.325
same,glycan array binding signal (z-score),[4],-0.336
same,glycan array binding signal (z-score),[5],-0.335
same,glycan array binding signal (z-score),[6],-0.332
same,glycan array binding signal (z-score),[7],-0.336
same,glycan array binding signal (z-score),[8],-0.339
same,glycan array binding signal (z-score),[9],-0.329
same,glycan array binding signal (z-score),[10],-0.32
same,glycan array binding signal (z-score),[11],-0.338
same,glycan array binding signal (z-score),[12],-0.332
same,glycan array binding signal (z-score),[13],-0.33
same,glycan array binding signal (z-score),GlcNAc(b1-3)Fuc,-0.328
same,glycan array binding signal (z-score),GlcNAc(b1-3)Gal,-0.333
same,glycan array binding signal (z-score),[14],-0.316
same,glycan array binding signal (z-score),GlcNAc(b1-3)Gal(b1-4)Glc,0.167
same,glycan array binding signal (z-score),[15],-0.334
same,glycan array binding signal (z-score),[16],-0.303
same,glycan array binding signal (z-score),[17],-0.193
same,glycan array binding signal (z-score),[18],0.452
same,glycan array binding signal (z-score),[19],-0.343
same,glycan array binding signal (z-score),[20],-0.19
same,glycan array binding signal (z-score),[21],-0.189
same,glycan array binding signal (z-score),[22],0.079
same,glycan array binding signal (z-score),[23],-0.042
same,glycan array binding signal (z-score),[24],-0.215
same,glycan array binding signal (z-score),[25],0.352
same,glycan array binding signal (z-score),[26],-0.16
same,glycan array binding signal (z-score),[27],-0.163
